In all, about 33,000 sequences were measured (“E-score (-0.5 to 0.5)”: median about -0.032, highest 2% from about 0.36 on). This is one part of the list.
target: T1, Sko1 (UniProt Q02100); assay: PBM E-score (8-mer binding enrichment) (E-score (-0.5 to 0.5)); higher = stronger / more preferred TF binding; most listed sequences are background and not binding sites; conditions: protein concentration: 200 nM; construct: GST-full length
T1 sequence: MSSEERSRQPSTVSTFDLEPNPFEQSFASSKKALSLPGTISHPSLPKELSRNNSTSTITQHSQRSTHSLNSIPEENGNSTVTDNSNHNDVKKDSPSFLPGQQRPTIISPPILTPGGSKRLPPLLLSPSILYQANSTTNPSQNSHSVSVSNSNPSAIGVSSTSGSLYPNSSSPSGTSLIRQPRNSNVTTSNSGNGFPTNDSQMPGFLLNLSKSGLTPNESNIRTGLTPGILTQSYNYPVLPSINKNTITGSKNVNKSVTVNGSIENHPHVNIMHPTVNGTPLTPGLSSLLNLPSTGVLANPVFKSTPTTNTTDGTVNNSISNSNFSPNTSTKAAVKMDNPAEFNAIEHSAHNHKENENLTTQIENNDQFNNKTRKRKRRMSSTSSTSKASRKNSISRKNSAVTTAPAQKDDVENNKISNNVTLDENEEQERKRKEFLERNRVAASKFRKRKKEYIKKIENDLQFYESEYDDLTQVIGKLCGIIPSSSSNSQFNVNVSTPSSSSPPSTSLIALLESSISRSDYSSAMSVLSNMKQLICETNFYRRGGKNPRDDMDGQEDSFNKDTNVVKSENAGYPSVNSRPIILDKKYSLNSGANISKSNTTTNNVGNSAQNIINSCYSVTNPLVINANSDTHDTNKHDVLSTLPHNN
Description: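 Universal 'all 10-mer' protein binding microarrays (Agilent AMADID 015681) probed with GST-tagged S. cerevisiae TFs (full-length or DBD) made by in vitro transcription/translation (PURExpress), about 100-200 nM. Bound TF was detected with fluorescent anti-GST. Each ungapped 8-mer (which stands for itself and its reverse complement) is scored by the PBM enrichment score (E-score), a modified Wilcoxon-Mann-Whitney statistic from -0.5 to +0.5, computed with the Universal PBM Analysis Suite. Scale: above 0.35 generally sequence-specific binding.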

Row | Sequence | PBM E-score
1 | AGTGATCG | -0.136
2 | GTATAGAA | -0.026
3 | CAAAGAAC | 0.0181
4 | ACCTCAAC | 0.00255
5 | CCATCAGA | -0.0968
6 | CCCTCAAG | -0.204
7 | AGGATCAC | 0.0953
8 | CTGACGTA | 0.489
9 | CTCGGTGA | -0.0619
10 | CCCTGACC | -0.134
11 | CACCACAG | -0.129
12 | ACCAAACA | 0.206
13 | ATGATAGA | 0.0154
14 | GAGAGATA | 0.017
15 | CCTACAAG | -0.0714
16 | CGACTCTA | -0.139
17 | ACAGCCCC | -0.291
18 | GCGCAGAC | -0.118
19 | AAGGCTTC | -0.162
20 | CTCCCGAC | -0.172
21 | ACGCGATG | 0.21
22 | CCAGAAGA | -0.0677

Row | Sequence | PBM E-score
23 | CCTTTCAA | 0.0056
24 | CGGTTCAG | -0.142
25 | CAGAAATG | -0.0878
26 | GGGTGAGA | -0.284
27 | AAGTCGCG | 0.00322
28 | AACGAGCG | 0.0965
29 | AATCTGGC | -0.0914
30 | GATGCTCA | -0.217
31 | ATTCTGCG | -0.0414
32 | CACCTGAA | 0.0843
33 | CTGCTTTA | 0.073
34 | GGACAGTA | 0.13
35 | CTACCGGA | -0.15
36 | TCGGTTCA | -0.116
37 | CACCTATC | -0.038
38 | GCTCGACC | -0.232
39 | TAAAATAA | 0.213
40 | CGGACTTC | -0.314
41 | ACAGTAAT | 0.175
42 | CTGGTGCC | -0.178
43 | CGTTGAGC | -0.0646
44 | ACGCCCGT | -0.0997

Row | Sequence | PBM E-score
45 | TGGACGAA | 0.0632
46 | ATACCATA | 0.163
47 | AAATAACT | 0.151
48 | CATTAAGG | 0.0855
49 | AGCTATGG | -0.0147
50 | CGACACCG | -0.159
51 | TACGTCCA | 0.404
52 | ACGGCGAA | -0.0731
53 | ATCTGTAC | 0.199
54 | CATGAAAC | 0.0288
55 | CCCTGGTA | -0.171
56 | GTCGACGA | 0.102
57 | GAAAGGCA | -0.0765
58 | CAACCTAA | 0.0822
59 | GGAGTGGA | -0.0495
60 | TAGGGCAA | -0.127
61 | CAGTCATA | 0.0103
62 | GATCGACC | -0.222
63 | ACCCGACC | -0.128
64 | CCGCTTGA | -0.114
65 | GCGTGGCA | 0.0628
66 | AACAGGCG | -0.211

Row | Sequence | PBM E-score
67 | ATAATGTA | 0.158
68 | CAGTGTTA | 0.125
69 | CAGCTATG | 0.0563
70 | CATGGACA | -0.135
71 | GTCGCGCA | 0.00385
72 | CTACCCAA | 0.00502
73 | CATGTCCA | -0.116
74 | CTACAAAG | 0.0381
75 | GATCAGAA | -0.185
76 | AGTGACAG | -0.0198
77 | CATTCAGC | -0.0386
78 | AAGGGCAA | -0.266
79 | ATACCCCG | -0.31
80 | ACTCTACG | 0.133
81 | ACAGCGTA | 0.171
82 | GAAGGACA | -0.0317
83 | GGAAACCA | -0.237
84 | ACTTGTCG | -0.106
85 | CAATCAAC | 0.137
86 | GGCCTGAA | -0.323

— the supplement of paper PMC3334620
